# Data: the supplement of paper PMC7238544
# Structures can show the parent of a compound that is named as a salt. ± gives the standard deviation of the averaged measurements. This is one part of the list.
# Columns and labels:
# Settings in all cases: priming compound concentration 100 µM
# [1] = test system: hAMSC donor 1; assay: Hoechst total cell count ratio vs vehicle control; higher = more cells (less toxicity)
# [2] = test system: hAMSC donor 2; assay: as above
# [3] = test system: hAMSC donor 1; assay: transgenic luciferase activity (RLU/mg protein) fold change vs vehicle control (ratio); higher = more transgene expression
# [4] = test system: hAMSC donor 2; assay: as above
# [5] = test system: hAMSC donor 1; assay: transfection efficiency (EGFP+ cells / Hoechst count) fold change vs vehicle control (ratio); hAMSC are human adipose-derived mesenchymal stem cells given an EGFP-luciferase plasmid by lipofection; higher = enhanced transfection
# [6] = test system: hAMSC donor 2; assay: as above
# 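Wherever Hoechst total cell count ratio vs vehicle control is given: compound added 30 min before Lipofectamine 3000 lipoplex delivery, triplicate-well means expressed against DMSO vehicle control wells of the same 96-well plate.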
# 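Wherever transfection efficiency (EGFP+ cells / Hoechst count) fold change vs vehicle control is given: compounds added 30 min before Lipofectamine 3000 lipoplex transfection, triplicate means relative to DMSO vehicle wells on the same plate, luciferase RLU normalized to BCA total protein.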
# 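Wherever transgenic luciferase activity (RLU/mg protein) fold change vs vehicle control is given: compounds in DMSO added 30 min before Lipofectamine 3000 transfection of pEGFP-Luc in 96-well plates, values are means of triplicate wells over DMSO vehicle wells on the same plate.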
SMILES,Hoechst total cell count ratio [1],Hoechst total cell count ratio [2],transgenic luciferase activity [3],transgenic luciferase activity [4],transfection efficiency [5],transfection efficiency [6]
CCCc1nc(C(C)(C)O)c(C(=O)OCc2oc(=O)oc2C)n1Cc1ccc(-c2ccccc2-c2nnn[nH]2)cc1 [Olmesartan medoxomil],1.38 ± 0.11,2.01 ± 0.37,0.278 ± 0.16,0.503 ± 0.15,0.561 ± 0.15,0.22 ± 0.041
Cn1nnc2c(C(N)=O)ncn2c1=O [Temozolomide],1.54 ± 0.12,1.19 ± 0.057,0.3 ± 0.17,0.807 ± 0.27,0.671 ± 0.3,0.977 ± 0.11
Nc1ccn([C@@H]2CS[C@H](CO)O2)c(=O)n1 [Lamivudine],1.15 ± 0.032,1.15 ± 0.13,0.805 ± 0.25,0.541 ± 0.12,1.1 ± 0.45,0.909 ± 0.17
CCc1oc2ccccc2c1C(=O)c1cc(Br)c(O)c(Br)c1 [Benzbromarone],1.4 ± 0.12,1.14 ± 0.13,0.281 ± 0.082,0.647 ± 0.076,0.951 ± 0.18,0.859 ± 0.098
CN(C)CC[C@@H](c1ccc(Cl)cc1)c1ccccn1 [Dexchlorpheniramine maleate],1.24 ± 0.036,1.24 ± 0.12,0.371 ± 0.22,0.51 ± 0.21,0.727 ± 0.19,0.703 ± 0.075
Nc1nc(Cl)nc2c1ncn2[C@H]1C[C@H](O)[C@@H](CO)O1 [Cladribine],0.628 ± 0.056,0.899 ± 0.25,0.698 ± 0.11,0.492 ± 0.1,1.91 ± 0.027,0.901 ± 0.28
CCN1CC(CCN2CCOCC2)C(c2ccccc2)(c2ccccc2)C1=O (centres undefined) [Doxapram hydrochloride],1.16 ± 0.083,1.71 ± 0.4,0.638 ± 0.12,0.644 ± 0.035,0.674 ± 0.13,0.704 ± 0.1
CC(C)NCC(O)COc1ccc(CCOCC2CC2)cc1 (centres undefined) [Betaxolol hydrochloride],1.75 ± 0.34,1.31 ± 0.04,1.33 ± 0.46,1.15 ± 0.24,1.01 ± 0.22,0.936 ± 0.19
COc1ccc(/C=C/C(=O)Nc2ccccc2C(=O)O)cc1OC [Tranilast],1.018 ± 0.0046,0.862 ± 0.18,7.87 ± 0.85,4.83 ± 1.1,1.94 ± 1.2,2.51 ± 0.58
O=c1n(CCCN2CCN(c3cccc(Cl)c3)CC2)nc2ccccn12 [Trazodone hydrochloride],1.04 ± 0.036,1.28 ± 0.086,2.35 ± 0.47,1.38 ± 0.76,1.24 ± 0.46,1.44 ± 0.46
C[C@@H]1CN(CCCn2c3ccccc3c3ccccc32)C[C@H](C)N1 [Rimcazole dihydrochloride],0.102 ± 0.045,0.11 ± 0.036,0.00687 ± 0.008,0.0101 ± 0.014,0.62 ± 0.15,0.133 ± 0.089
CC(C)(C)NC(=O)[C@@H]1C[C@@H]2CCCC[C@@H]2CN1C[C@@H](O)[C@H](Cc1ccccc1)NC(=O)[C@H](CC(N)=O)NC(=O)c1ccc2ccccc2n1 [Saquinavir mesylate],0.0637 ± 0.039,0.091 ± 0.042,0.0312 ± 0.044,0.00924 ± 0.0076,0.566 ± 0.7,0.345 ± 0.39
CN(C)[C@@H]1C(O)=C(C(N)=O)C(=O)[C@@]2(O)C(O)=C3C(=O)c4c(O)cccc4[C@@](C)(O)[C@H]3C[C@@H]12 [Tetracycline],1.55 ± 0.065,2.5 ± 0.18,0.696 ± 0.23,0.369 ± 0.19,0.329 ± 0.046,0.232 ± 0.044
Nc1nc(N)c2nc(-c3ccccc3)c(N)nc2n1 [Triamterene],1.07 ± 0.062,1.08 ± 0.12,0.362 ± 0.32,0.166 ± 0.031,0.771 ± 0.71,0.633 ± 0.19
Cn1c(=O)c2nc[nH]c2n(C)c1=O [Theophylline],1.18 ± 0.13,0.906 ± 0.3,0.71 ± 0.42,0.501 ± 0.21,1.28 ± 0.18,0.922 ± 0.28
CN1CCC[C@H]1c1cccnc1 [Nicotine],1.32 ± 0.017,1.3 ± 0.3,0.985 ± 0.5,0.682 ± 0.11,0.998 ± 0.14,1.13 ± 0.21
NC(=O)N1c2ccccc2C=Cc2ccccc21 [Carbamazepine],0.964 ± 0.32,1.27 ± 0.23,0.393 ± 0.079,0.645 ± 0.047,1.21 ± 0.15,1.06 ± 0.12
NCC(O)c1ccc(O)c(O)c1 (racemic) [(+/-)-Norepinephrine hydrochloride],1.22 ± 0.2,1.39 ± 0.26,0.881 ± 0.26,0.512 ± 0.081,1.17 ± 0.3,1.24 ± 0.075
CC(C)Cc1ccc(C(C)C(=O)O)cc1 (centres undefined) [Ibuprofen],0.894 ± 0.18,1.37 ± 0.37,1.06 ± 0.59,0.566 ± 0.39,0.836 ± 0.24,0.803 ± 0.26
C[C@H]1COc2c(N3CCN(C)CC3)c(F)cc3c(=O)c(C(=O)O)cn1c23 [Levofloxacin],1.14 ± 0.13,1.37 ± 0.23,0.823 ± 0.15,0.854 ± 0.055,0.712 ± 0.11,0.906 ± 0.14
CCOC(=O)C1=C(COCCN)NC(C)=C(C(=O)OC)C1c1ccccc1Cl (centres undefined) [Amlodipine],0.073 ± 0.015,0.066 ± 0.032,0.00173 ± 0.0013,0.000351 ± 0.00015,0.848 ± 0.32,0.0452 ± 0.039
Oc1c(Cl)cc(Cl)c2cccnc12 [Chloroxine],0.604 ± 0.035,0.169 ± 0.042,2.19 ± 0.93,0.393 ± 0.35,0.754 ± 0.36,1.35 ± 0.96
CS(=O)(=O)OCCCCOS(C)(=O)=O [Busulfan],1.1 ± 0.086,1.48 ± 0.096,0.848 ± 0.38,3 ± 0.65,0.964 ± 0.14,1.03 ± 0.12
CC(c1cc2ccccc2s1)N(O)C(N)=O (centres undefined) [Zileuton],1.39 ± 0.03,1.25 ± 0.16,1.3 ± 0.35,0.8 ± 0.28,0.955 ± 0.14,1.19 ± 0.061
